Measurements reported in the supplement of paper PMC8728848.
The list shows a part of the results.

What was measured:
Assay in all cases: glycan array binding signal (z-score within array); higher = stronger binding
Conditions in all cases: glycan notation: IUPAC condensed, linker removed
[1] = target: Neu5Ac(a2-6)Gal(b1-4)GlcNAc(b1-2)Man(a1-3)[GlcNAc(b1-4)][Neu5Ac(a2-6)Gal(b1-4)GlcNAc(b1-2)Man(a1-6)]Man(b1-4)GlcNAc(b1-4)GlcNAc
In short: (§1)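 Negative Z-scores can be read as non-binding. The Z-score is calculated within each array and then averaged across arrays of one protein sequence at different concentrations or buffers and across linkers. Arrays, 3228 in all, were curated from the Consortium for Functional Glycomics database and kept only where the protein sequence was available.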

[2] = target: Neu5Ac(a2-6)Gal(b1-4)GlcNAc(b1-2)Man(a1-3)[Man(a1-6)]Man(b1-4)GlcNAc(b1-4)GlcNAc
In short: as §1

[3] = target: Neu5Ac(a2-6)Gal(b1-4)GlcNAc(b1-2)Man(a1-3)[Neu5Ac(a2-3)Gal(b1-4)GlcNAc(b1-2)Man(a1-6)]Man(b1-4)GlcNAc(b1-4)GlcNAc
In short: as §1

[4] = target: Neu5Ac(a2-6)Gal(b1-4)GlcNAc(b1-2)Man(a1-3)[Neu5Ac(a2-6)Gal(b1-4)GlcNAc(b1-2)Man(a1-6)]Man(b1-4)GlcNAc(b1-4)GlcNAc
In short: as §1

[5] = target: Neu5Ac(a2-6)Gal(b1-4)GlcNAc(b1-2)Man(a1-3)[Neu5Ac(a2-6)Gal(b1-4)GlcNAc(b1-2)Man(a1-6)]Man(b1-4)GlcNAc(b1-4)[Fuc(a1-6)]GlcNAc
In short: as §1

[6] = target: Neu5Ac(a2-6)Gal(b1-4)GlcNAc(b1-2)Man(a1-6)Man(b1-4)GlcNAc(b1-4)GlcNAc
In short: as §1

[7] = target: Neu5Ac(a2-6)Gal(b1-4)GlcNAc(b1-2)Man(a1-6)[Gal(b1-4)GlcNAc(b1-2)Man(a1-3)]Man(b1-4)GlcNAc(b1-4)GlcNAc
In short: as §1

[8] = target: Neu5Ac(a2-6)Gal(b1-4)GlcNAc(b1-2)Man(a1-6)[GlcNAc(b1-2)Man(a1-3)]Man(b1-4)GlcNAc(b1-4)GlcNAc
In short: as §1

[9] = target: Neu5Ac(a2-6)Gal(b1-4)GlcNAc(b1-2)Man(a1-6)[Man(a1-3)]Man(b1-4)GlcNAc(b1-4)GlcNAc
In short: as §1

[10] = target: Neu5Ac(a2-6)Gal(b1-4)GlcNAc(b1-2)[Neu5Ac(a2-6)Gal(b1-4)GlcNAc(b1-4)]Man(a1-3)[GlcNAc(b1-4)][Neu5Ac(a2-6)Gal(b1-4)GlcNAc(b1-2)[Neu5Ac(a2-6)Gal(b1-4)GlcNAc(b1-6)]Man(a1-6)]Man(b1-4)GlcNAc(b1-4)GlcNAc
In short: as §1

[11] = target: Neu5Ac(a2-6)Gal(b1-4)GlcNAc(b1-2)[Neu5Ac(a2-6)Gal(b1-4)GlcNAc(b1-4)]Man(a1-3)[GlcNAc(b1-4)][Neu5Ac(a2-6)Gal(b1-4)GlcNAc(b1-4)Man(a1-6)]Man(b1-4)GlcNAc(b1-4)GlcNAc
In short: as §1

[12] = target: Neu5Ac(a2-6)Gal(b1-4)GlcNAc(b1-2)[Neu5Ac(a2-6)Gal(b1-4)GlcNAc(b1-6)]Man(a1-6)[Neu5Ac(a2-6)Gal(b1-4)GlcNAc(b1-2)Man(a1-3)][GlcNAc(b1-4)]Man(b1-4)GlcNAc(b1-4)GlcNAc
In short: as §1

[13] = target: Neu5Ac(a2-6)Gal(b1-4)GlcNAc(b1-3)Gal(b1-3)GlcNAc
In short: as §1

[14] = target: Neu5Ac(a2-6)Gal(b1-4)GlcNAc(b1-3)Gal(b1-4)GlcNAc
In short: as §1

[15] = target: Neu5Ac(a2-6)Gal(b1-4)GlcNAc(b1-3)Gal(b1-4)GlcNAc(b1-2)Man(a1-3)[Neu5Ac(a2-6)Gal(b1-4)GlcNAc(b1-3)Gal(b1-4)GlcNAc(b1-2)Man(a1-6)]GalNAc
In short: as §1

[16] = target: Neu5Ac(a2-6)Gal(b1-4)GlcNAc(b1-3)Gal(b1-4)GlcNAc(b1-3)Gal(b1-4)GlcNAc
In short: as §1

[17] = target: Neu5Ac(a2-6)Gal(b1-4)GlcNAc(b1-3)Gal(b1-4)GlcNAc(b1-3)Gal(b1-4)GlcNAc(b1-2)Man(a1-3)[Neu5Ac(a2-6)Gal(b1-4)GlcNAc(b1-3)Gal(b1-4)GlcNAc(b1-3)Gal(b1-4)GlcNAc(b1-2)Man(a1-6)]GalNAc
In short: as §1

[18] = target: Neu5Ac(a2-6)Gal(b1-4)GlcNAc(b1-3)Gal(b1-4)GlcNAc(b1-3)GalNAc
In short: as §1

[19] = target: Neu5Ac(a2-6)Gal(b1-4)GlcNAc(b1-3)Gal(b1-4)GlcNAc(b1-3)[Neu5Ac(a2-6)Gal(b1-4)GlcNAc(b1-3)Gal(b1-4)GlcNAc(b1-6)]GalNAc
In short: as §1

[20] = target: Neu5Ac(a2-6)Gal(b1-4)GlcNAc(b1-3)Gal(b1-4)GlcNAc(b1-6)[Gal(b1-3)]GalNAc
In short: as §1

[21] = target: Neu5Ac(a2-6)Gal(b1-4)GlcNAc(b1-3)Gal(b1-4)[Fuc(a1-3)]GlcNAc(b1-3)Gal(b1-4)[Fuc(a1-3)]GlcNAc
In short: as §1

[22] = target: Neu5Ac(a2-6)Gal(b1-4)GlcNAc(b1-3)GalNAc
In short: as §1

[23] = target: Neu5Ac(a2-6)Gal(b1-4)GlcNAc(b1-3)[Neu5Ac(a2-6)Gal(b1-4)GlcNAc(b1-6)]GalNAc
In short: as §1

[24] = target: Neu5Ac(a2-6)Gal(b1-4)GlcNAc(b1-6)GalNAc
In short: as §1

[25] = target: Neu5Ac(a2-6)Gal(b1-4)GlcNAc(b1-6)[Gal(b1-3)GlcNAc(b1-3)]Gal(b1-4)Glc
In short: as §1

[26] = target: Neu5Ac(a2-6)Gal(b1-4)GlcNAc(b1-6)[Gal(b1-3)]GalNAc
In short: as §1

[27] = target: Neu5Ac(a2-6)Gal(b1-4)GlcNAc6S
In short: as §1

Neu5Ac(a2-6)GalNAc = target: Neu5Ac(a2-6)GalNAc
In short: as §1

[28] = target: Neu5Ac(a2-6)GalNAc(b1-4)GlcNAc
In short: as §1

[29] = target: Neu5Ac(a2-6)GalNAc(b1-4)GlcNAc6S
In short: as §1

[30] = target: Neu5Ac(a2-6)GlcNAc(b1-4)GlcNAc
In short: as §1

[31] = target: Neu5Ac(a2-6)GlcNAc(b1-4)GlcNAc(b1-4)GlcNAc
In short: as §1

Neu5Ac(a2-8)Neu5Ac = target: Neu5Ac(a2-8)Neu5Ac
In short: as §1

[32] = target: Neu5Ac(a2-8)Neu5Ac(a2-3)Gal(b1-3)GalNAc(b1-4)[Neu5Ac(a2-3)]Gal(b1-4)Glc
In short: as §1

[33] = target: Neu5Ac(a2-8)Neu5Ac(a2-3)Gal(b1-3)GalNAc(b1-4)[Neu5Ac(a2-8)Neu5Ac(a2-3)]Gal(b1-4)Glc
In short: as §1

[34] = target: Neu5Ac(a2-8)Neu5Ac(a2-3)Gal(b1-4)Glc
In short: as §1

[35] = target: Neu5Ac(a2-8)Neu5Ac(a2-3)Gal(b1-4)GlcNAc
In short: as §1

[36] = target: Neu5Ac(a2-8)Neu5Ac(a2-3)[Gal(b1-3)GalNAc(b1-4)]Gal(b1-4)Glc
In short: as §1

[37] = target: Neu5Ac(a2-8)Neu5Ac(a2-3)[GalNAc(b1-4)]Gal(b1-4)Glc
In short: as §1

[38] = target: Neu5Ac(a2-8)Neu5Ac(a2-8)Neu5Ac
In short: as §1

[39] = target: Neu5Ac(a2-8)Neu5Ac(a2-8)Neu5Ac(a2-3)Gal(b1-4)Glc
In short: as §1

[40] = target: Neu5Ac(a2-8)Neu5Ac(a2-8)Neu5Ac(a2-3)[Gal(b1-3)GalNAc(b1-4)]Gal(b1-4)Glc
In short: as §1

[41] = target: Neu5Ac(a2-8)Neu5Ac(a2-8)Neu5Ac(a2-3)[GalNAc(b1-4)]Gal(b1-4)Glc
In short: as §1

[42] = target: Neu5Ac(a2-8)Neu5Ac(a2-8)Neu5Ac(a2-8)Neu5Ac(a2-3)[GalNAc(b1-4)]Gal(b1-4)Glc
In short: as §1

[43] = target: Neu5Ac(a2-8)Neu5Gc(a2-3)Gal(b1-4)GlcNAc
In short: as §1

[44] = target: Neu5Ac(b2-6)Gal(b1-4)GlcNAc
In short: as §1

Neu5Ac(b2-6)GalNAc = target: Neu5Ac(b2-6)GalNAc
In short: as §1

[45] = target: Neu5Ac9Ac(a2-3)Gal(b1-3)GlcNAc
In short: as §1

[46] = target: Neu5Ac9Ac(a2-3)Gal(b1-4)GlcNAc
In short: as §1

[47] = target: Neu5Ac9Ac(a2-6)Gal(b1-4)GlcNAc
In short: as §1

[48] = target: Neu5Gc(a2-3)Gal(b1-3)GlcNAc
In short: as §1

[49] = target: Neu5Gc(a2-3)Gal(b1-3)[Fuc(a1-4)]GlcNAc
In short: as §1

Neu5Gc(a2-3)Gal(b1-4)Glc = target: Neu5Gc(a2-3)Gal(b1-4)Glc
In short: as §1

[50] = target: Neu5Gc(a2-3)Gal(b1-4)GlcNAc
In short: as §1

[51] = target: Neu5Gc(a2-3)Gal(b1-4)GlcNAc(b1-3)Gal(b1-4)GlcNAc(b1-2)Man(a1-3)[Neu5Gc(a2-3)Gal(b1-4)GlcNAc(b1-3)Gal(b1-4)GlcNAc(b1-2)Man(a1-6)]Man(b1-4)GlcNAc(b1-4)GlcNAc
In short: as §1

[52] = target: Neu5Gc(a2-3)Gal(b1-4)[Fuc(a1-3)]GlcNAc
In short: as §1

[53] = target: Neu5Gc(a2-6)Gal(b1-4)GlcNAc
In short: as §1

Neu5Gc(a2-6)GalNAc = target: Neu5Gc(a2-6)GalNAc
In short: as §1

[54] = target: Neu5Gc(a2-8)Neu5Ac(a2-3)Gal(b1-4)GlcNAc
In short: as §1

[55] = target: Neu5Gc(a2-8)Neu5Gc(a2-3)Gal(b1-4)GlcNAc
In short: as §1

[56] = target: Neu5Gc(a2-8)Neu5Gc(a2-3)Gal(b1-4)GlcNAc(b1-3)Gal(b1-4)GlcNAc
In short: as §1

[57] = target: Neu5Gc(a2-8)Neu5Gc(a2-6)Gal(b1-4)GlcNAc
In short: as §1

[58] = target: Neu5Gc(b2-6)Gal(b1-4)GlcNAc
In short: as §1

Measured: glycan array binding signal (z-score)

B1: PFL (Pseudomonas fluorescens) (protein)
chain: MSKYAVANQWGGSSAPWHPGGTWVLGARDNQNVVAIEIKSGDGGKSFTGTMTYAGEGPIGFKAQRTGQNQYNVENQWGGNDAPWHPGGKWVIGGRDNQNVIALSVTSSDGGKNLSGTNTYANEGPIGFRGQIE
-0.112: [11] | [12] | [14] | [19] | Neu5Ac(a2-8)Neu5Ac | [40] | Neu5Gc(a2-3)Gal(b1-4)Glc
-0.109: [25] | [37] | [57]
-0.116: [7] | [38] | [41] | [53] | [55]
-0.118: [18] | [20] | Neu5Ac(b2-6)GalNAc | [54]
-0.103: [5]
-0.115: [16] | [36] | [45] | [50] | [51]
-0.093: [10]
-0.113: [24] | [28] | [35] | [52] | [58]
-0.119: [34] | [44]
-0.005: [43]
-0.117: [1] | [6] | [9] | [13] | [23] | [26] | Neu5Ac(a2-6)GalNAc | [31]
-0.073: [21]
-0.099: [17]
-0.12: [30]
-0.111: [8] | [22] | [27] | [29] | [42]
-0.107: [3] | [15]
-0.114: all other assays above
